The source gives no read counts; variants with many changes may rest on few reads.
B1: LINE1-mini (parent)
chain: GGCAGAGCUCAACACAGCGUGGCAAAGUGGCUGUGGCUAGACUGCC

Variants of: B1
Assay: self-cleavage, relative activity (ratio to wild type); higher = more cleavage; in vitro, sequencing; the parent is a self-cleaving ribozyme

Row | Variant | self-cleavage
1 | GGCAGAACUCAACAUAGCGUGGCAAAGUGGCUGUGGCUAGUUUGUC [G7A C15U A41U C42U C45U] | 0.89
2 | GGUAGAGCUCAACACAGCGUGGGAAAGUGGCUGUGGCUAGAAUGCC [C3U C23G C42A] | 0.43
3 | GGCAGAACUCAAAACAGCGUGGCUAAGUGGCUGUGGCUAGACUGCC [G7A C13A A24U] | 0.13
4 | GGCAGAGCUCAACUCAGCGUAGCAAAGUGGCUGUGGCUAGACUGUC [A14U G21A C45U] | 0.31
5 | GGCAGAGCUCAACACAGCGUGGCAAUGUGGCUGUGGCUAGACUUCA [A26U G44U C46A] | 0.04
6 | GGCAGAGCUCUCCACAGCGUUGCAACGUGGCUGUGGCUUGACUGCC [A11U A12C G21U A26C A39U] | 0.01
7 | GGCAGAGGUCACCACAGCGUGGCAAAGUGGCUGUGGCUAUACUGCC [C8G A12C G40U] | 0.02
8 | GAGAGAACUCAACAAAGCGUGGCAAAGUGGCUGUGGCUAGACUGCC [G2A C3G G7A C15A] | 0.3
9 | GGCAUAGCGGAACACAGCGUGGCAAAGCGGCUGUGGCCAGACUGCC [G5U U9G C10G U28C U38C] | 0
10 | GGCAGAGUUCAACACAGCGUGGCAAAGUGACUGUGGCUAGCCUGCC [C8U G30A A41C] | 0.1
11 | GGCAGAGCUCGUCACAGCGUGGCAAAGGGGCUGUGGCUAGACUACC [A11G A12U U28G G44A] | 0.02
12 | GGAAGAGCUCAUCAUAGCGUGGCAAAGUGUCUGUGGUUAGACUGAC [C3A A12U C15U G30U C37U C45A] | 0.07
13 | GGCAGAGUUCAACACAGCUUGGCAUUGAGACUGUGGCUAGACUGCC [C8U G19U A25U A26U U28A G30A] | 0.3
14 | GGCAUAGCUAAACACAGCGUGGCAAAGUGGCUGUGGCUAGACUGCG [G5U C10A C46G] | 0.01
15 | GGCAGCGCUCAACACUGCGUGGCAAAGUGGCUAUGGCUAGACUGCC [A6C A16U G33A] | 0.02
16 | GGCAGUGCUCAACAGAGCGUGGCAAAGUGGCUAUGGCUAGACUGCC [A6U C15G G33A] | 0.06
17 | GGCAGAGCUCAACACAGCAUUGCAAAGUGGCUGUGGCGAGACUGCC [G19A G21U U38G] | 0.04
18 | GGCAGAGGUCAACACAGCGUGGCAAAGUGACUGUGGCUUGACUGCC [C8G G30A A39U] | 0.03
19 | GGCAGAUCUCAACACAGCGAGGCAGCGUGGCUGUGGCUAGACUGCU [G7U U20A A25G A26C C46U] | 0.06

Row | Variant | self-cleavage
20 | GGAACAGCUCAACACACCGUGGCAAAGUGGCUGUGGCUUGACUGCC [C3A G5C G17C A39U] | 0.07
21 | GGCAGAGCUCAACACAGCGUGUCAAAUUGGCUGUGCCUAGACUUCC [G22U G27U G36C G44U] | 0.62
22 | GGCGGAGCUCAACACAGCGUUGCAAAGUGGCUGUGGCUAGUCUGCC [A4G G21U A41U] | 0.49
23 | GGCAGACCUCAACACAGCGUGGCAAAGUGGGUGUGGCUACACUGCC [G7C C31G G40C] | 0.02
24 | GGCAGAGCUCAACACAGAGUGGCAAAGUGGCUGUUGCUAGAGUGCC [C18A G35U C42G] | 0.04
25 | GGCAGAGGUCAACACAGCGUGGCAAAGUUACUGUGGCUAGACUGCC [C8G G29U G30A] | 0.25
26 | GACGGAUCUCAACACAGCGUGUCAAAAGUACCGUGGCUAGACUGCC [G2A A4G G7U G22U G27A U28G G29U G30A U32C] | 0.21
27 | GGCAGAGCUCAACACAGUGUGGCAAAGUGGCUUUAGCUAGAGUGCC [C18U G33U G35A C42G] | 0.01
28 | GGCAGAGCUCAAAAUAGCGUGGGAAAGUGGCUGUGGCUAGACUGCC [C13A C15U C23G] | 0.04
29 | GGCAGUCCUCAACACAGCGUGGCAAAGUGGCUGUGGCUAGUCUGCC [A6U G7C A41U] | 0.21
30 | GGCAGAGCUUUACACAGCGUGGCAAAGUGGCUGUGGCUAUAAUGCC [C10U A11U G40U C42A] | 0
31 | GGCAGGGCUCAACACAGCGUGGCAAAGUGGCUGUGAGUAGACUGCC [A6G G36A C37G] | 0.03
32 | CGCAGAGCUUAACACAGCGUGACAAAGUGGCUGUGGCUAGACUGCU [G1C C10U G22A C46U] | 0.03
33 | GGCAGAGCUAAACACAGCGUGGGAAAGUGACUGUGGCUGGACUGCC [C10A C23G G30A A39G] | 0.01
34 | GGCAGAGCUCAUCACAGCGUGGAAAAGUGGCUGUUGCUAGACUGCC [A12U C23A G35U] | 0.14
35 | GGCAGAGCUCAACACAGCGUGGAAAAGUGGCUGUGGCGAGAUUGCC [C23A U38G C42U] | 0.14
36 | GGCAGAGCUCAACACAGCUUGGCAAAGUGGCUGUGGUUAGACUGAC [G19U C37U C45A] | 0.03
37 | GGCAGACCUCAACACAGCUUGGCAAAGUGACUGUGGCUAAACUGCC [G7C G19U G30A G40A] | 0.13
38 | GGCAGAGAUCAAUACAGCGUGGCAAAGAGGCUGUGUCUAGAGUGCC [C8A C13U U28A G36U C42G] | 0.3

Row | Variant | self-cleavage
39 | CGCAGAGCUCAACACAGCGUGGCACCGUGGCUGUGGCUAUACUGCC [G1C A25C A26C G40U] | 0.01
40 | GGCAAAGCACAACACAGCGUGGCAAAGUGUCUGUGGCUAGACUACA [G5A U9A G30U G44A C46A] | 0.2
41 | AGCUGAGCUUAACACAGCGUGGCAAAGUGGCUGUGGCUUGACUGCC [G1A A4U C10U A39U] | 0.1
42 | GGCAGACCUCAACACAGCGUGGCUAAUUGGCUGUGGCUAGCCUGCC [G7C A24U G27U A41C] | 0.04
43 | GGCAGAGCUCAACACAGCGUGGCAAAAUGUCUGUGGCAAUACCGCC [G27A G30U U38A G40U U43C] | 0.12
44 | GGCAUAGCCCAACACAGCGUGGCAAAGUGGUUGCGGCUAGACUGCU [G5U U9C C31U U34C C46U] | 0.08
45 | UGCAGAAUUCAACACAGCGUGGCAAAGUGGAUGUGGCUAGACUGCC [G1U G7A C8U C31A] | 0.11
46 | GGCUGAGCUCAACACAGAGUGCCAAAGUGGCUGUGCCUAGACUGCC [A4U C18A G22C G36C] | 0.08
47 | GGCAGAGCUCAAAACAGCGUGGCAAAGCGGCUGUGCCUAGACUGCC [C13A U28C G36C] | 0.07
48 | GGCAGUGCUCAACACAGCGUGGCAAAAUGGCUGUGGCUAGACUGCU [A6U G27A C46U] | 0.42
49 | GGCAGACCUCGACACAGCGUGGCAAAGUGGCUGUGGCUAGACCGCC [G7C A11G U43C] | 0.01
50 | GGCAUAGCUAAACACAGCGUGGCAAAGUGGCUAUGGCUAGACUGCC [G5U C10A G33A] | 0.03
51 | GGCAGAGCUCGACACAGCGUGGCACAGUGGAUGUGGCGAGACUGCC [A11G A25C C31A U38G] | 0
52 | GGCAGAGCUCAACACACCGUGGCAAAGUGGAUGUGGAUAGACUGCC [G17C C31A C37A] | 0.02
53 | GACAUAGCUAAACGCAGCGUGGCAAAGUGGCUGUGGCUAGACUGCC [G2A G5U C10A A14G] | 0.03
54 | UGCAGAGCUCAACACAGCGUGGCAAAAUGGCUGAGGCUUGACUUCC [G1U G27A U34A A39U G44U] | 0.02
55 | GGCAGAGCACAACACAGCGUGGCCCAGUGGCUGUGGCUAGACUGCC [U9A A24C A25C] | 0.13
56 | GGCAGAGCUCAACUAAGCUUGGCAAACUGGCUGUGACUAGACUGCC [A14U C15A G19U G27C G36A] | 0.01

Source: the RNAGym collection of RNA variant scans (doi:10.7554/elife.90254)
